The least precise scores are not listed. The source holds two more conditions with little spread; they are left out. In variant names, del marks residues removed and ins residues inserted between the two positions. For part of these data: The concentration of ogerin is not given here.

The chains are these.
B1: GPR68, Q15743 (parent)
chain: MGNITADNSSMSCTIDHTIHQTLAPVVYVTVLVVGFPANCLSLYFGYLQIKARNELGVYLCNLTVADLFYICSLPFWLQYVLQHDNWSHGDLSCQVCGILLYENIYISVGFLCCISVDRYLAVAHPFRFHQFRTLKAAVGVSVVIWAKELLTSIYFLMHEEVIEDENQHRVCFEHYPIQAWQRAINYYRFLVGFLFPICLLLASYQGILRAVRRSHGTQKSRKDQIQRLVLSTVVIFLACFLPYHVLLLVRSVWEASCDFAKGVFNAYHFSLLLTSFNCVADPVLYCFVSETTHRDLARLRGACLAFLTCSRTGRAREAYPLGAPEASGKSGAQGEEPELLTKLHPAFQTPNSPGSGGFPTGRLA

In data set [1] the parent is B1. Nature of the data set: cAMP reporter score (Enrich2 score, wild type = 0); higher = more signal; HEK293T, FACS bins.
The variants in data set [2] derive from B1. Kind of data set: surface expression score (Enrich2 score, wild type = 0); higher = more signal; HEK293T, FACS bins.

As to F359del, the cAMP reporter score is 0.492 in data set [1] (pH 5.5); 1.05 in data set [1] (pH 6); -0.237 in data set [1] (pH 6, modulator: ogerin); 0.228 in data set [1] (pH 6.5, modulator: ogerin). The surface expression score in data set [2] was 0.085.
R363_L364insGSG: the cAMP reporter score in data set [1] (pH 5.5) worked out at 0.416; in data set [1] (pH 6), 0.046; in data set [1] (pH 6, modulator: ogerin), 0.598; in data set [1] (pH 6.5, modulator: ogerin), 0.881. In data set [2], the surface expression score was 0.478.
Take G358V: the cAMP reporter score in data set [1] (pH 5.5) was 0.465; in data set [1] (pH 6, modulator: ogerin), 0.633; in data set [1] (pH 6.5, modulator: ogerin), -0.176. For the same variant, in data set [2], the surface expression score is -0.799.
Consider G358Y, for which the cAMP reporter score in data set [1] (pH 5.5) is 0.407; in data set [1] (pH 6), -0.958; in data set [1] (pH 6, modulator: ogerin) it was 0.294; in data set [1] (pH 6.5, modulator: ogerin) it was -0.489. In addition, the surface expression score in data set [2] is -0.249.
Turning to G358W, the cAMP reporter score was 0.87 in data set [1] (pH 5.5); -0.11 in data set [1] (pH 6); 1 in data set [1] (pH 6, modulator: ogerin); 0.482 in data set [1] (pH 6.5, modulator: ogerin). For the same variant, the surface expression score in data set [2] was -0.021.
G358T: the cAMP reporter score in data set [1] (pH 5.5) was 0.518; in data set [1] (pH 6) it was -0.156; in data set [1] (pH 6, modulator: ogerin) it was 0.659; in data set [1] (pH 6.5, modulator: ogerin), 0.577. For the same variant, the surface expression score in data set [2] is 0.204.
On to T361D, for which the cAMP reporter score in data set [1] (pH 5.5) is -0.729; in data set [1] (pH 6), 0.947; in data set [1] (pH 6, modulator: ogerin), -0.841; in data set [1] (pH 6.5, modulator: ogerin), -0.561. The surface expression score in data set [2] is -0.497.
Consider T361N, for which the cAMP reporter score in data set [1] (pH 5.5) was found to be 2.17; in data set [1] (pH 6), 2.78; in data set [1] (pH 6.5, modulator: ogerin), 0.99. For the same variant, the surface expression score in data set [2] was determined as 2.73.
Consider T361I, for which the cAMP reporter score in data set [1] (pH 5.5) is -0.01; in data set [1] (pH 6) it was 0.001; in data set [1] (pH 6, modulator: ogerin) it was -0.108; in data set [1] (pH 6.5, modulator: ogerin), -0.339. Also, the surface expression score in data set [2] was -0.789.
On the same counts, the results for T361K are -0.206, -1.25, 0.25, -0.101 and -0.231.
On the same counts, the results for T361F are 0.077, -0.667, 0.266, 0.09 and -0.42.
Taken in the same sequence, the figures for T361C were 0.398, 0.294, 0.387, 0.51 and -0.429.
Consider T361S, for which the cAMP reporter score is 0.542 in data set [1] (pH 5.5); -1.04 in data set [1] (pH 6); 0.658 in data set [1] (pH 6, modulator: ogerin); 0.732 in data set [1] (pH 6.5, modulator: ogerin). Moreover, in data set [2], the surface expression score amounted to 0.136.
Taken in the same sequence, the figures for T361L were 0.525, -0.035, 0.707, 0.065 and -0.101.
As for T361W, the cAMP reporter score in data set [1] (pH 5.5) was -0.484; in data set [1] (pH 6), -0.52; in data set [1] (pH 6, modulator: ogerin), 0.333; in data set [1] (pH 6.5, modulator: ogerin) it was -0.721. Besides, the surface expression score in data set [2] is 0.037.
With T361M, the cAMP reporter score in data set [1] (pH 5.5) is 0.066; in data set [1] (pH 6), -0.28; in data set [1] (pH 6, modulator: ogerin), 0.009; in data set [1] (pH 6.5, modulator: ogerin), -0.259. In addition, the surface expression score in data set [2] is 0.641.
Take T361Y: the cAMP reporter score in data set [1] (pH 5.5) is 0.739; in data set [1] (pH 6, modulator: ogerin), -0.195. The surface expression score in data set [2] is -0.333.
T361V: the cAMP reporter score was 0.348 in data set [1] (pH 5.5); -0.252 in data set [1] (pH 6); 0.316 in data set [1] (pH 6, modulator: ogerin); -0.343 in data set [1] (pH 6.5, modulator: ogerin). Further, the surface expression score in data set [2] is -0.085.
For T361E, the cAMP reporter score in data set [1] (pH 5.5) worked out at 0.012; in data set [1] (pH 6), 0.313; in data set [1] (pH 6, modulator: ogerin), 1.06; in data set [1] (pH 6.5, modulator: ogerin), 0.56. In data set [2], the surface expression score came out at 0.612.
Regarding T361R, the cAMP reporter score in data set [1] (pH 5.5) came to 0.592; in data set [1] (pH 6, modulator: ogerin) it was 0.58; in data set [1] (pH 6.5, modulator: ogerin), 1.95. Besides, in data set [2], the surface expression score was 0.745.
In the case of T361P, the cAMP reporter score was -0.49 in data set [1] (pH 5.5); -0.108 in data set [1] (pH 6); 0.509 in data set [1] (pH 6, modulator: ogerin); -0.636 in data set [1] (pH 6.5, modulator: ogerin). In addition, the surface expression score in data set [2] was determined as 0.033.
With T361A, the cAMP reporter score was 0.26 in data set [1] (pH 5.5); -0.358 in data set [1] (pH 6); 0.378 in data set [1] (pH 6, modulator: ogerin); 0.009 in data set [1] (pH 6.5, modulator: ogerin). Moreover, in data set [2], the surface expression score is 0.389.
Regarding T361H, the cAMP reporter score in data set [1] (pH 5.5) was -0.613; in data set [1] (pH 6), -1.41; in data set [1] (pH 6, modulator: ogerin), -1.07; in data set [1] (pH 6.5, modulator: ogerin) it was -1.24. In data set [2], the surface expression score was found to be 0.382.
Taken in the same sequence, the figures for L364W were 0.498, 0.823, 1.24, 0.942 and 0.502.
For the variant L364R, the cAMP reporter score in data set [1] (pH 5.5) was found to be 1.32; in data set [1] (pH 6), 0.54; in data set [1] (pH 6.5, modulator: ogerin), 0.107.
On to L364G, for which the cAMP reporter score in data set [1] (pH 5.5) turned out to be 1.57; in data set [1] (pH 6), 1.03; in data set [1] (pH 6, modulator: ogerin), 1.43; in data set [1] (pH 6.5, modulator: ogerin), 1.66. Besides, the surface expression score in data set [2] turned out to be 1.28.
Taken in the same sequence, the figures for L364I were 0.986, 0.163, 1.27, 1.04 and 1.53.
For the variant L364N, the cAMP reporter score in data set [1] (pH 5.5) is 0.246; in data set [1] (pH 6) it was 0.678; in data set [1] (pH 6, modulator: ogerin), -0.259; in data set [1] (pH 6.5, modulator: ogerin), 0.047. Moreover, in data set [2], the surface expression score was -0.019.
Turning to L364H, the cAMP reporter score in data set [1] (pH 5.5) came out at 1.48; in data set [1] (pH 6), 1.79; in data set [1] (pH 6, modulator: ogerin) it was 1.63; in data set [1] (pH 6.5, modulator: ogerin), 1.33.
For the variant L364T, the cAMP reporter score in data set [1] (pH 5.5) is 0.215; in data set [1] (pH 6), 0.96; in data set [1] (pH 6, modulator: ogerin) it was -0.42; in data set [1] (pH 6.5, modulator: ogerin), 0.613. Moreover, the surface expression score in data set [2] was -0.051.
Taken in the same sequence, the figures for L364Q were 0.421, -1.01, 0.188, 0.251 and -0.556.

The record behind these values is the GPR68 mutational scans of Howard et al. (2025).
